Results published in PubChem BioAssay AID488969 (Vanderbilt High Throughput Screening Facility, 2010).
Several values for one entry are separate records, joined by “and”; a condition that tells them apart may be missing. Equal values may be shown once. In all, about 110,000 compounds were measured (“z-score”: median about -0.1, highest 2% from about 2 on). This is one part of the list. Activity calls are given as the source filed them.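 How the source made its calls: active means z-score in the third read window above 3 or below -3; inactive means the rest.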

The compounds below were run against Metabotropic glutamate receptor 8 (Rattus norvegicus) (UniProt P70579) (assay: rat mGluR8 modulators via GIRK flux, primary screen, cell-based, thallium flux, HTS (AID 488969)). Details: HEK293 rat mGluR8, GIRK (G protein-gated inwardly rectifying potassium channel) thallium flux, FluoZin2; at 10 µM; stronger effect = higher value; submaximal glutamate (EC20) added with thallium.
Sequence of UniProt P70579 (P70579 whole entry, looked up): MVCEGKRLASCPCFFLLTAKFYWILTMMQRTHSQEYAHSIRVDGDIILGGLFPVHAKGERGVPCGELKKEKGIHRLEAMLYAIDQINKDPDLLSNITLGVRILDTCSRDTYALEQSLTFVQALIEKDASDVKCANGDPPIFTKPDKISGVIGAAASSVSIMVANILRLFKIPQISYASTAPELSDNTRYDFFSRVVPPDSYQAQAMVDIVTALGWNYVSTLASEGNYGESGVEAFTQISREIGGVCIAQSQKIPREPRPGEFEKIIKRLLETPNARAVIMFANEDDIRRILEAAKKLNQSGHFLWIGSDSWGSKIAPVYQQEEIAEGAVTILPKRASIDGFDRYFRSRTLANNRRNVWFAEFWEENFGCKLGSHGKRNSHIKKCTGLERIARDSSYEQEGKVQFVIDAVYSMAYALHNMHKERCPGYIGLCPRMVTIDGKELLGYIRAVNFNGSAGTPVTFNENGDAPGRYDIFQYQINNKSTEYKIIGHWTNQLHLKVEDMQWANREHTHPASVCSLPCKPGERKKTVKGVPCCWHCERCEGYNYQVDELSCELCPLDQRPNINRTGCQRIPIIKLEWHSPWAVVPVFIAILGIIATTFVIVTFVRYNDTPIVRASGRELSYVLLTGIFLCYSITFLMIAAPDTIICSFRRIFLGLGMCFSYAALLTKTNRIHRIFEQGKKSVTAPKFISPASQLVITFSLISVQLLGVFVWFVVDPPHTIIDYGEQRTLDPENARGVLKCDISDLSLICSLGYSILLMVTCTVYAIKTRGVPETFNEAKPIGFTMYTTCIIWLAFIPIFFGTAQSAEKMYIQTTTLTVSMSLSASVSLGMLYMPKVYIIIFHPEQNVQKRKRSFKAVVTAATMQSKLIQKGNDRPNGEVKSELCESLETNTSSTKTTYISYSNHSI

**Q.** For O=S1(=O)CCN=C2SC3=C(CCCC3)N21, which z-score is on record?
**A.** 0.111

**Q.** How did the z-score turn out when COc1ccc(NC(=O)/C(=C\c2ccc3c(c2)OCO3)NC(C)=O)cc1 was run?
**A.** 0.277

**Q.** How did the z-score turn out when Cc1ccc(C(CC(=O)NCc2ccco2)c2ccccc2)c(O)c1 (centres undefined) was run?
**A.** -0.304

**Q.** With COc1ccc(-c2noc(N(C)CC(=O)Nc3cccc(C(F)(F)F)c3)n2)cc1 as the compound, how does the z-score read?
**A.** 0.547

**Q.** How did the z-score turn out when CCCCC1(CC(=O)OCC)C(=O)N(c2ccccc2)N(c2ccccc2)C1=O was run?
**A.** 0.157

**Q.** How did the z-score turn out when Cc1cc(NC(=O)CCC(=O)N(CC2CCCO2)C(C(=O)NC2CCCC2)c2ccccc2C)no1 (centres undefined) was run?
**A.** -0.179

**Q.** Which z-score does the source give for Cc1cccc(CCNC(=O)C2CCN(S(=O)(=O)c3cccc4nsnc34)CC2)c1 here?
**A.** -0.207

**Q.** For COc1ccc(-c2cc(C(F)(F)F)nc(SCc3cccc(C(=O)O)c3)n2)cc1, which z-score is on record?
**A.** -0.512

**Q.** How did the z-score turn out when Cc1ccc(C(=O)Nc2ncc3c(Cl)cccc3n2)cc1 was run?
**A.** -1.32

**Q.** Which z-score does the source give for O=C(Nc1ccccc1)c1cc(-n2cnnc2)ccc1Cl here?
**A.** 0.0933

**Q.** Which z-score does the source give for Cn1c(-c2ccc(Cl)cc2)cnc1NCc1cc2c(cc1[N+](=O)[O-])OCO2 here?
**A.** 0.55

**Q.** For COc1ccc(NC(=S)Nc2ccc(C)c(S(=O)(=O)N3CCCCC3)c2)cc1, which z-score is on record?
**A.** 1.48

**Q.** For CC(C)CN(C(=O)c1ccc(=O)n(C)n1)c1nc2ccccc2s1, which z-score is on record?
**A.** -0.793

**Q.** Which z-score does the source give for CCOC(=O)CC(=O)CSC1=C(C#N)C(c2ccccc2OC)CC(=O)N1 (centres undefined) here?
**A.** -0.591

**Q.** Which z-score does the source give for O=C(NC(=S)Nc1ccc(C(=O)N2CCOCC2)cc1)c1ccc([N+](=O)[O-])cc1 here?
**A.** 0.905

**Q.** Which z-score does the source give for CN1CCN(C/C(=C2/N=C(c3ccccc3)OC2=O)N(C)C)CC1 here?
**A.** 1.46

**Q.** Cc1ccc(NC(=S)N2CCOCC2)cc1 was tested. Which z-score did it give?
**A.** -0.0267

**Q.** How did the z-score turn out when CC(C)(C)c1cc(CN2CCOCC2)c(C(=O)O)o1 was run?
**A.** 0.352

**Q.** With Cc1ccc(N(CC(=O)NC2CCCCC2)C(=O)c2ccc(C)s2)cc1 as the compound, how does the z-score read?
**A.** -0.156

**Q.** How did the z-score turn out when CC(C)(C)c1nnc(NS(C)(=O)=O)s1 was run?
**A.** 0.0553

**Q.** CCOC(=O)c1ccc(NC(=O)c2cn(CCC#N)nc2-c2ccc3c(c2)OCCO3)cc1 was tested. Which z-score did it give?
**A.** 0.545

**Q.** For CCOc1ccc(Br)cc1S(=O)(=O)Nc1nc(CN2CCOCC2)nc2sc(C)c(C)c12, which z-score is on record?
**A.** -0.385

**Q.** With Cc1cccc(C)c1OCC(=O)N/N=C/c1ccncc1 as the compound, how does the z-score read?
**A.** 0.137

**Q.** Cc1cc2c(=O)n(Cc3ccco3)c(SCC(=O)N3CCCc4ccccc43)nc2s1 was tested. Which z-score did it give?
**A.** -0.202

**Q.** For O=C(CCCn1c(=O)oc2ccccc21)N1CCc2ccccc2C1, which z-score is on record?
**A.** -0.569

**Q.** With CCOC(=O)CN1C(=O)C2(OCCCO2)c2ccccc21 as the compound, how does the z-score read?
**A.** -0.0349

**Q.** COc1ccc(Br)cc1CN(C)CC(=O)Nc1cc(Cl)cc(Cl)c1 was tested. Which z-score did it give?
**A.** -0.219

**Q.** CCOC(=O)C(NC(=O)Nc1ccc(F)cc1F)(Oc1ccc(F)cc1)C(F)(F)F (centres undefined) was tested. Which z-score did it give?
**A.** -0.0622

**Q.** With CCOC(=O)C1CCCN(C(=O)CSCc2ccccc2)C1 (centres undefined) as the compound, how does the z-score read?
**A.** -1.22

**Q.** COc1cc(NC(=O)Cn2nc(C(F)(F)F)c(Br)c2C)cc([N+](=O)[O-])c1 was tested. Which z-score did it give?
**A.** 1.1

**Q.** For CCOC(=O)Cn1c(=O)oc2cc(S(=O)(=O)Nc3ccc(F)cc3)ccc21, which z-score is on record?
**A.** -0.211

**Q.** For CN(C)c1ccc(CNC23CC4CC(CC(C4)C2)C3)cc1, which z-score is on record?
**A.** 0.345

**Q.** CCOC(=O)c1c(C)[nH]c(C(=O)COC(=O)c2ccccn2)c1C was tested. Which z-score did it give?
**A.** -0.117

**Q.** For CC(C)NC(=O)c1ccc(-c2ccc(Cl)c(C(F)(F)F)c2)o1, which z-score is on record?
**A.** -0.619

**Q.** For COc1ccc(CCNc2oc(COc3ccccc3Cl)nc2C#N)cc1OC, which z-score is on record?
**A.** -0.598

**Q.** How did the z-score turn out when Cc1cccc(NC(=O)Cc2coc3ccc4ccccc4c23)n1 was run?
**A.** -0.454

**Q.** How did the z-score turn out when CCc1nc(N(CC)CC)c2oc3ccccc3c2n1 was run?
**A.** -0.675

**Q.** How did the z-score turn out when Cc1cc(Cl)c(S(=O)(=O)N2CC(C)OC(C)C2)cc1OCC(N)=O (centres undefined) was run?
**A.** 0.759

**Q.** For C/C(=C\c1cc(C(=O)O)c(C)o1)CO, which z-score is on record?
**A.** -0.611

**Q.** CCC(C)(C)NC(=O)C(c1ccc(OC)cc1)N(CC1CCCO1)C(=O)CCC(=O)Nc1cc(C)on1 (centres undefined) was tested. Which z-score did it give?
**A.** -0.119

**Q.** How did the z-score turn out when Cc1ccccc1NC(=S)NC(=O)c1cc(-c2ccccc2)nc2ccccc12 was run?
**A.** active: 7.41

**Q.** How did the z-score turn out when Cc1cccc(C)c1NC(=O)C(c1ccc([N+](=O)[O-])cc1)N1CCCCC1 (centres undefined) was run?
**A.** -0.169

**Q.** For Nc1c(S(=O)(=O)c2ccccc2)nnn1-c1ccccc1, which z-score is on record?
**A.** 0.0213

**Q.** Which z-score does the source give for CCCc1cc(=O)[nH]c(SCCOc2ccc(OCC)cc2)n1 here?
**A.** -0.92

**Q.** With CCN(C(=O)c1cc2cccc(OC)c2oc1=O)c1ccccc1 as the compound, how does the z-score read?
**A.** -0.301

**Q.** For Cc1ccc(Cn2c(=O)c3c(nc4n3CCCN4Cc3ccccc3)n(C)c2=O)cc1, which z-score is on record?
**A.** -0.605

**Q.** Which z-score does the source give for O=C(/C=C/c1ccc(Cl)c(Cl)c1)NCc1ccco1 here?
**A.** -0.305

**Q.** With O=C(Nc1cc(C(F)(F)F)ccc1F)C1CCC1 as the compound, how does the z-score read?
**A.** 0.411

**Q.** Which z-score does the source give for O=S1(=O)CCC(NC(=S)NCCNC(=S)NC2CCS(=O)(=O)C2)C1 (centres undefined) here?
**A.** 0.62

**Q.** How did the z-score turn out when CCCCSc1nc2c(cnn2-c2ccc(F)cc2)c(=O)[nH]1 was run?
**A.** -0.151

**Q.** With CCOc1ccc(-c2nnn(CC(=O)Nc3ccccc3OC)n2)cc1OCC as the compound, how does the z-score read?
**A.** 0.731

**Q.** For Cc1cc(/C(O)=C2\C(=O)C(=O)N(CCN(C)C)C2c2ccncc2)ccc1OCc1ccccc1 (centres undefined), which z-score is on record?
**A.** -0.175

**Q.** With Cc1ccc(OC(=O)c2oc3ccc(F)cc3c2C)c(C)c1 as the compound, how does the z-score read?
**A.** -0.0515

**Q.** For Cn1c(=O)cc(OCC(=O)NC2CCCCC2)c2ccccc21, which z-score is on record?
**A.** -0.168

**Q.** With O=C(Cc1ccccc1)Nc1ccc(Br)c(Cl)c1 as the compound, how does the z-score read?
**A.** -0.178

**Q.** Which z-score does the source give for O=C(NCC1CCCO1)c1cc(C(=O)C2CC2)c[nH]1 (centres undefined) here?
**A.** 0.0716

**Q.** With CC(C)C(NS(=O)(=O)c1cccc2nsnc12)C(=O)N1CCc2ccccc2C1 (centres undefined) as the compound, how does the z-score read?
**A.** -0.0459

**Q.** With CC1CCC(C(C)C)C(OC(=O)Cn2c(-c3ccccc3)[n+](C)c3ccccc32)C1 (centres undefined) as the compound, how does the z-score read?
**A.** 1.15 and -0.176

**Q.** For COc1cccc(C(=O)Nc2ccccc2N2CCCC2)c1, which z-score is on record?
**A.** -0.144

**Q.** Cc1c(NC(=O)C(C)N2CC(C)OC(C)C2)c(=O)n(-c2ccccc2)n1C (centres undefined) was tested. Which z-score did it give?
**A.** 0.743

**Q.** For CCOC(=O)c1cn(-c2nc(-c3ccc(Cl)cc3)cs2)c2c(F)c(N3CC(C)OC(C)C3)c(F)cc2c1=O (centres undefined), which z-score is on record?
**A.** -0.177

**Q.** Which z-score does the source give for O=C(CC1CCCCC1)NC1CCCC1 here?
**A.** 0.0952

**Q.** How did the z-score turn out when Cc1cc(C)nc(SCC(=O)Nc2ccc(S(=O)(=O)NC(C)(C)C)cc2)n1 was run?
**A.** -0.301

**Q.** With Cn1cnnc1SCC(=O)Nc1ccc(Br)cc1F as the compound, how does the z-score read?
**A.** -0.164

**Q.** For CC(C)=C1C2C=CC1C(C(=O)Nc1cccc(C)c1)C2C(=O)O (centres undefined), which z-score is on record?
**A.** -0.299

**Q.** CC(C)CCOCc1nc2sc3c(c2c(=O)[nH]1)CCC(C)C3 (centres undefined) was tested. Which z-score did it give?
**A.** -0.0689

**Q.** For COC(=O)CC1c2cc(OC)c(OC)cc2CC(=O)c2cc(OC)c(OC)cc21 (centres undefined), which z-score is on record?
**A.** -0.195

**Q.** How did the z-score turn out when CC1(C)Cc2c(ccc3ccccc23)-c2nnc(-c3cccnc3)n21 was run?
**A.** active: 3.16

**Q.** How did the z-score turn out when O=C(NO)c1ccc(OC(F)F)cc1 was run?
**A.** 0.319
